Source: PubChem BioAssay AID1347165 (National Center for Advancing Translational Sciences (NCATS), 2019)
Hit rate of the full screen: of about 220,000 compounds, about 5,700 (2.6%) were called active. Inconclusive means that the source gave no clear call. Such entries were picked first, then a sample of the others. Calls follow the shape of the dose curve; as a rule, active = well fitted inhibition curve with a large enough effect; inconclusive = small, poorly fitted or top-dose-only effect; inactive = no such curve, though single readings can be large or run the other way. Where the call is inconclusive, the potency comes from a doubtful curve fit.

Each molecule was assayed against Lysine-specific demethylase 5B (Homo sapiens) (UniProt Q9UGL1) (assay: Primary screen for KDM5B Histone Demethylases FDH-coupled qHTS). Conditions: FDH-coupled NADH fluorescence (FDH is formaldehyde dehydrogenase); activity change, negative = inhibition: at 57.7 µM (top of the series) unless noted.
Outline: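 Measured: NADH fluorescence change, 30 min, RT. System: KDM5BΔAP 200 nM final, H3K4me3 peptide, α-KG, Fe(II), ascorbate, NAD⁺ plus FDH, pH 7.5 HEPES. Compounds: titrated, 10 min pre-incubation with enzyme.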
Also: nearly all actives have a fitted effect of over 70% in size.
For activity change, negative = inhibition in this document: 0% is about no effect.
Potency is read from the fitted curve at half-maximal effect; tags tell the direction and shape of the fitted curve.

Sequence of UniProt Q9UGL1 (Q9UGL1 whole entry, looked up): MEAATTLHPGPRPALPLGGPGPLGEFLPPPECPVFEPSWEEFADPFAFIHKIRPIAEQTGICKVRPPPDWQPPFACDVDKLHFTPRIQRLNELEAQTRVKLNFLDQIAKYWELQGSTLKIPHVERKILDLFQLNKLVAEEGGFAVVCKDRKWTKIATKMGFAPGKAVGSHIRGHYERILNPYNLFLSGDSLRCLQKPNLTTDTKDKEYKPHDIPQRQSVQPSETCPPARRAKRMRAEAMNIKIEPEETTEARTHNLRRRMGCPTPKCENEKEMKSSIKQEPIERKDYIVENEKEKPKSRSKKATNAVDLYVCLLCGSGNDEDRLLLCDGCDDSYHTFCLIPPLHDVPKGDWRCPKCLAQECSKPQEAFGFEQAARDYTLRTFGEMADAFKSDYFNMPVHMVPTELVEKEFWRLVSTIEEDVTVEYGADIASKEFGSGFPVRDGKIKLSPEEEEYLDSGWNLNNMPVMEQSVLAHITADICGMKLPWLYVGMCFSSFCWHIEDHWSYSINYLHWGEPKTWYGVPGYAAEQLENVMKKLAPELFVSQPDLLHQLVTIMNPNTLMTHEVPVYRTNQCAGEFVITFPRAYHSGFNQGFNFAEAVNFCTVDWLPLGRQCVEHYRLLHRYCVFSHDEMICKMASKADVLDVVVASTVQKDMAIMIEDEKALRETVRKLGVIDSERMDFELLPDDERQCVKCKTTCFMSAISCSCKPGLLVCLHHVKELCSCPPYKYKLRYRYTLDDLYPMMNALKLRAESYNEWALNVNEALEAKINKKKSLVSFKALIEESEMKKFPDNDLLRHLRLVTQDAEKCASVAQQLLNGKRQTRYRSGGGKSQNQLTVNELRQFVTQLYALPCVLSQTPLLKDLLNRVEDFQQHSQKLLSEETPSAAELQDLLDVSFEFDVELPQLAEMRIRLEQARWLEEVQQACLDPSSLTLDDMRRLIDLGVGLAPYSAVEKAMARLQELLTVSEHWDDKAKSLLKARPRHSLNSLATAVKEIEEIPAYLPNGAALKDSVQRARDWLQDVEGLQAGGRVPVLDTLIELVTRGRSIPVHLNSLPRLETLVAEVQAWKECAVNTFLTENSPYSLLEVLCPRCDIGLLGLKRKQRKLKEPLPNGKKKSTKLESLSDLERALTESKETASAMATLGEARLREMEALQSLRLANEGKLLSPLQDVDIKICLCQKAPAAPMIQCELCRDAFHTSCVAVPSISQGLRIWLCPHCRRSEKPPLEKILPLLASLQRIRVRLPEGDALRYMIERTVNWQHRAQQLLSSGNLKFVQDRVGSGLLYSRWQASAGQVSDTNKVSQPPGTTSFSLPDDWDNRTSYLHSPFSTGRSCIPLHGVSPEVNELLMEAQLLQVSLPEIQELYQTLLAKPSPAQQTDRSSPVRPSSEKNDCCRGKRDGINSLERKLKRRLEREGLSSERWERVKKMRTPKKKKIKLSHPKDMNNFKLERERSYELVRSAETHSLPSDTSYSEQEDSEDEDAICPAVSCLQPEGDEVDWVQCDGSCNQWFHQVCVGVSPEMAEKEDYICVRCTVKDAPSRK

Structure (SMILES)	Potency	activity change, negative = inhibition
COc1cccc(/C=C/C(=O)c2cc3ccccc3oc2=O)c1	inconclusive: 20 µM [inhibitor, partial curve, poor fit]	–
Cc1cc(C(=O)NCC(C)c2ccccc2)c2cccc(C)c2n1 (stereo not drawn)	inconclusive: 31.6 µM [inhibitor, partial curve, poor fit]	–
Cn1cccc1/C=N/NC(=O)c1cc2ccccc2cc1O	inconclusive: 17.8 µM [inhibitor, partial curve, poor fit]	–
CCc1cccc(C)c1Nc1c(-c2ccc(N(C)C)cc2)nc2cnccn12	inconclusive: 12.6 µM [inhibitor, partial curve, poor fit]	–
O=C(O)CCC(=O)N1N=C(c2ccsc2)CC1c1ccc(Br)cc1 (stereo not drawn)	inconclusive: 39.8 µM [inhibitor, single point]	–
COc1ccccc1CN1CC[C@@H](CO)N(C)c2ncccc2C1	active: 31.6 µM	–
CCCOc1ccc(CN2C(=O)C(=O)c3cccc(C)c32)cc1	inconclusive: 28.2 µM [inhibitor, partial curve, poor fit]	–
O=C(C1CCN(C(=O)N2CC3CC(C2)[C@H]2CCCC(=O)N2C3)CC1)N1CCN(c2ncccn2)CC1 (stereo partly drawn)	inconclusive: 31.6 µM [inhibitor, single point]	–
Cc1ccc(CN2CCCCCCNC(=O)[C@@H]3C[C@@H](C(=O)NCCc4c[nH]c5ccccc45)C[C@@H]32)o1	inconclusive: 22.4 µM [inhibitor, single point]	–
CC1(C)CC(=O)C2=C(C1)Nc1[nH]n(-c3ccccc3)c(=O)c1C2c1ccc(O)cc1 (stereo not drawn)	–	inactive: -27.4%
COc1cccc(N2C(=O)NC(=NC3CCCCC3)C23CCN(Cc2cccnc2)CC3)c1	–	inactive: 20.1% [at 115 µM]
COCCOc1ccnc(-c2noc([C@@H]3CCCN3Cc3cn(C)c4ccccc34)n2)c1	inconclusive: 35.5 µM [inhibitor, single point]	–
Cn1ccc2c(C(=O)NCc3cccnc3)nc(-c3cccc(F)c3)cc21	active: 22.4 µM	–
COc1cc(Br)cc2cc(S(=O)(=O)c3ccccc3)c(=O)oc12	–	inconclusive: -31.8% [inhibitor]
COc1ccc(CNC(=O)c2cc3c(=O)n(Cc4ccc(OC)cc4)ccc3nc2C)cc1	inconclusive: 35.5 µM [inhibitor, partial curve, poor fit]	–
O=C(CC1C=CCC1)NCCc1cccs1 (stereo not drawn)	–	inactive: 23%
Cc1ccc(-c2noc(-c3cccnc3N(C)Cc3ccc(Cl)cc3)n2)cc1	inconclusive: 31.6 µM [inhibitor, partial curve, poor fit]	–
O=C(CSc1ccc2c(c1)OCCCO2)Nc1ccccc1Oc1ccccc1	–	inactive: 6.13%
